± gives the standard deviation of the averaged measurements. Restriction of a single-cycle SIVsab GFP reporter by TRIM5α v1-loop variants in CRFK cells. Human variants: read share among cells still uninfected after two challenges over input, higher = gained restriction. Rhesus variants: share among infected cells over input, higher = lost restriction. Reporter dose not given per row. No active / inactive call per row; the paper calls a change when both replicates lie above its controls (mean + 2 SD of stop or wild-type variants, or the top frameshift score). Residues outside the varied loop are taken from Swiss-Prot. The paper reads the human single-substitution scores as noise; they and the rhesus combinations repeat poorly (rank correlation 0.3 to 0.4), indel scores repeat only for the top variants, rhesus substitutions well (0.9).

This data set deals with SIVsab (simian immunodeficiency virus of sabaeus monkeys), single-cycle GFP reporter, in CRFK cells. Description: enrichment among uninfected cells over input (fold); higher = stronger restriction. To be noted: library: insertions and deletions. The procedure: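 Pools of CRFK cells expressing variants of the TRIM5α v1 loop were challenged with the single-cycle reporter, sorted by GFP and sequenced; mean of two replicates.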
“MASGILVNVKEEVTCPICLELLTQPLSLDCGHSFCQACLTANHKKSMLDKGESSCPVCRISYQPENIRPNRHVANIVEKLREVKLSPEGQKVDHCARHGEKLLLFCQEDGKVICWLCERSQEHRGHHTFLTEEVAREYQVKLQAALEMLRQKQQEAEELEADIREEKASWKTQIQYDKTNVLADFEQLRDILDWEESNELQNLEKEEEDILKSLTNSETEMVQQTQSLRELISDLEHRLQGSVMELLQGVDGVIKRTENVTLKKPETFPKNQRRVFRAPDLKGMLEVFRELTDVRRYWVDVTVAPNNISCAVISEDKRQVSSPKPQIIYGARGTRYTRYQTFVNFNYCTGILGSQSITSGKHYWEVDVSKKTAWILGVCAGFQPDAMCNIEKNENYQPKYGYWVIGLEEGVKCSAFQDSSFHTPSVPFIVPLSVIICPDRVGVFLDYEACTVSFFNITNHGFLIYKFSHCSFSQPVFPYLNPRKCGVPMTLCSPSS [human TRIM5α, 3-codon duplication at 334]” gave an enrichment of 0.655 ± 0.63.
With “MASGILVNVKEEVTCPICLELLTQPLSLDCGHSFCQACLTANHKKSMLDKGESSCPVCRISYQPENIRPNRHVANIVEKLREVKLSPEGQKVDHCARHGEKLLLFCQEDGKVICWLCERSQEHRGHHTFLTEEVAREYQVKLQAALEMLRQKQQEAEELEADIREEKASWKTQIQYDKTNVLADFEQLRDILDWEESNELQNLEKEEEDILKSLTNSETEMVQQTQSLRELISDLEHRLQGSVMELLQGVDGVIKRTENVTLKKPETFPKNQRRVFRAPDLKGMLEVFRELTDVRRYWVDVTVAPNNISCAVISEDKRQVSSPKPQIIYGARGTRYVNFNYCTGILGSQSITSGKHYWEVDVSKKTAWILGVCAGFQPDAMCNIEKNENYQPKYGYWVIGLEEGVKCSAFQDSSFHTPSVPFIVPLSVIICPDRVGVFLDYEACTVSFFNITNHGFLIYKFSHCSFSQPVFPYLNPRKCGVPMTLCSPSS [human TRIM5α, 3-codon deletion at 337]”, the enrichment came to 0.797 ± 0.11.
With “MASGILVNVKEEVTCPICLELLTQPLSLDCGHSFCQACLTANHKKSMLDKGESSCPVCRISYQPENIRPNRHVANIVEKLREVKLSPEGQKVDHCARHGEKLLLFCQEDGKVICWLCERSQEHRGHHTFLTEEVAREYQVKLQAALEMLRQKQQEAEELEADIREEKASWKTQIQYDKTNVLADFEQLRDILDWEESNELQNLEKEEEDILKSLTNSETEMVQQTQSLRELISDLEHRLQGSVMELLQGVDGVIKRTENVTLKKPETFPKNQRRVFRAPDLKGMLEVFRELTDVRRYWVDVTVAPNNISCAVISEDKRQVSSPKPQIIYGARGTRYYCTGILGSQSITSGKHYWEVDVSKKTAWILGVCAGFQPDAMCNIEKNENYQPKYGYWVIGLEEGVKCSAFQDSSFHTPSVPFIVPLSVIICPDRVGVFLDYEACTVSFFNITNHGFLIYKFSHCSFSQPVFPYLNPRKCGVPMTLCSPSS [human TRIM5α, 7-codon deletion at 337]”, the enrichment worked out at 1.35 ± 0.56.
As for “MASGILVNVKEEVTCPICLELLTQPLSLDCGHSFCQACLTANHKKSMLDKGESSCPVCRISYQPENIRPNRHVANIVEKLREVKLSPEGQKVDHCARHGEKLLLFCQEDGKVICWLCERSQEHRGHHTFLTEEVAREYQVKLQAALEMLRQKQQEAEELEADIREEKASWKTQIQYDKTNVLADFEQLRDILDWEESNELQNLEKEEEDILKSLTNSETEMVQQTQSLRELISDLEHRLQGSVMELLQGVDGVIKRTENVTLKKPETFPKNQRRVFRAPDLKGMLEVFRELTDVRRYWVDVTVAPNNISCAVISEDKRQVSSPKPQIIYGARGTRYYGARGTRYQTFVNFNYCTGILGSQSITSGKHYWEVDVSKKTAWILGVCAGFQPDAMCNIEKNENYQPKYGYWVIGLEEGVKCSAFQDSSFHTPSVPFIVPLSVIICPDRVGVFLDYEACTVSFFNITNHGFLIYKFSHCSFSQPVFPYLNPRKCGVPMTLCSPSS [human TRIM5α, 8-codon duplication at 329]”, the figure is 0.473 ± 0.4.
As for “MASGILVNVKEEVTCPICLELLTQPLSLDCGHSFCQACLTANHKKSMLDKGESSCPVCRISYQPENIRPNRHVANIVEKLREVKLSPEGQKVDHCARHGEKLLLFCQEDGKVICWLCERSQEHRGHHTFLTEEVAREYQVKLQAALEMLRQKQQEAEELEADIREEKASWKTQIQYDKTNVLADFEQLRDILDWEESNELQNLEKEEEDILKSLTNSETEMVQQTQSLRELISDLEHRLQGSVMELLQGVDGVIKRTENVTLKKPETFPKNQRRVFRAPDLKGMLEVFRELTDVRRYWVDVTVAPNNISCAVISEDKRQVSSPKPQIIYGARGTRYYQTFVNFNYCTGILGSQSITSGKHYWEVDVSKKTAWILGVCAGFQPDAMCNIEKNENYQPKYGYWVIGLEEGVKCSAFQDSSFHTPSVPFIVPLSVIICPDRVGVFLDYEACTVSFFNITNHGFLIYKFSHCSFSQPVFPYLNPRKCGVPMTLCSPSS [human TRIM5α, 1-codon duplication at 336]”, the figure is 0.992 ± 0.73; as for “MASGILVNVKEEVTCPICLELLTQPLSLDCGHSFCQACLTANHKKSMLDKGESSCPVCRISYQPENIRPNRHVANIVEKLREVKLSPEGQKVDHCARHGEKLLLFCQEDGKVICWLCERSQEHRGHHTFLTEEVAREYQVKLQAALEMLRQKQQEAEELEADIREEKASWKTQIQYDKTNVLADFEQLRDILDWEESNELQNLEKEEEDILKSLTNSETEMVQQTQSLRELISDLEHRLQGSVMELLQGVDGVIKRTENVTLKKPETFPKNQRRVFRAPDLKGMLEVFRELTDVRRYWVDVTVAPNNISCAVISEDKRQVSSPKPQIIYGARGTTFVNFNYCTGILGSQSITSGKHYWEVDVSKKTAWILGVCAGFQPDAMCNIEKNENYQPKYGYWVIGLEEGVKCSAFQDSSFHTPSVPFIVPLSVIICPDRVGVFLDYEACTVSFFNITNHGFLIYKFSHCSFSQPVFPYLNPRKCGVPMTLCSPSS [human TRIM5α, 3-codon deletion at 335]”, 0.334 ± 0.26; as for “MASGILVNVKEEVTCPICLELLTQPLSLDCGHSFCQACLTANHKKSMLDKGESSCPVCRISYQPENIRPNRHVANIVEKLREVKLSPEGQKVDHCARHGEKLLLFCQEDGKVICWLCERSQEHRGHHTFLTEEVAREYQVKLQAALEMLRQKQQEAEELEADIREEKASWKTQIQYDKTNVLADFEQLRDILDWEESNELQNLEKEEEDILKSLTNSETEMVQQTQSLRELISDLEHRLQGSVMELLQGVDGVIKRTENVTLKKPETFPKNQRRVFRAPDLKGMLEVFRELTDVRRYWVDVTVAPNNISCAVISEDKRQVSSPKPQIIYGARGTTRYQTFVNFNYCTGILGSQSITSGKHYWEVDVSKKTAWILGVCAGFQPDAMCNIEKNENYQPKYGYWVIGLEEGVKCSAFQDSSFHTPSVPFIVPLSVIICPDRVGVFLDYEACTVSFFNITNHGFLIYKFSHCSFSQPVFPYLNPRKCGVPMTLCSPSS [human TRIM5α, 1-codon duplication at 334]”, 0.975 ± 0.52.
As for “MASGILVNVKEEVTCPICLELLTQPLSLDCGHSFCQACLTANHKKSMLDKGESSCPVCRISYQPENIRPNRHVANIVEKLREVKLSPEGQKVDHCARHGEKLLLFCQEDGKVICWLCERSQEHRGHHTFLTEEVAREYQVKLQAALEMLRQKQQEAEELEADIREEKASWKTQIQYDKTNVLADFEQLRDILDWEESNELQNLEKEEEDILKSLTNSETEMVQQTQSLRELISDLEHRLQGSVMELLQGVDGVIKRTENVTLKKPETFPKNQRRVFRAPDLKGMLEVFRELTDVRRYWVDVTVAPNNISCAVISEDKRQVSSPKPQIIYGARGTVNFNYCTGILGSQSITSGKHYWEVDVSKKTAWILGVCAGFQPDAMCNIEKNENYQPKYGYWVIGLEEGVKCSAFQDSSFHTPSVPFIVPLSVIICPDRVGVFLDYEACTVSFFNITNHGFLIYKFSHCSFSQPVFPYLNPRKCGVPMTLCSPSS [human TRIM5α, 5-codon deletion at 335]”, the figure is 0.91 ± 0.77; as for “MASGILVNVKEEVTCPICLELLTQPLSLDCGHSFCQACLTANHKKSMLDKGESSCPVCRISYQPENIRPNRHVANIVEKLREVKLSPEGQKVDHCARHGEKLLLFCQEDGKVICWLCERSQEHRGHHTFLTEEVAREYQVKLQAALEMLRQKQQEAEELEADIREEKASWKTQIQYDKTNVLADFEQLRDILDWEESNELQNLEKEEEDILKSLTNSETEMVQQTQSLRELISDLEHRLQGSVMELLQGVDGVIKRTENVTLKKPETFPKNQRRVFRAPDLKGMLEVFRELTDVRRYWVDVTVAPNNISCAVISEDKRQVSSPKPQIIYGARGTYCTGILGSQSITSGKHYWEVDVSKKTAWILGVCAGFQPDAMCNIEKNENYQPKYGYWVIGLEEGVKCSAFQDSSFHTPSVPFIVPLSVIICPDRVGVFLDYEACTVSFFNITNHGFLIYKFSHCSFSQPVFPYLNPRKCGVPMTLCSPSS [human TRIM5α, 9-codon deletion at 335]”, 1.17 ± 0.42; as for “MASGILVNVKEEVTCPICLELLTQPLSLDCGHSFCQACLTANHKKSMLDKGESSCPVCRISYQPENIRPNRHVANIVEKLREVKLSPEGQKVDHCARHGEKLLLFCQEDGKVICWLCERSQEHRGHHTFLTEEVAREYQVKLQAALEMLRQKQQEAEELEADIREEKASWKTQIQYDKTNVLADFEQLRDILDWEESNELQNLEKEEEDILKSLTNSETEMVQQTQSLRELISDLEHRLQGSVMELLQGVDGVIKRTENVTLKKPETFPKNQRRVFRAPDLKGMLEVFRELTDVRRYWVDVTVAPNNISCAVISEDKRQVSSPKPQIIYGARGTYGARGTRYQTFVNFNYCTGILGSQSITSGKHYWEVDVSKKTAWILGVCAGFQPDAMCNIEKNENYQPKYGYWVIGLEEGVKCSAFQDSSFHTPSVPFIVPLSVIICPDRVGVFLDYEACTVSFFNITNHGFLIYKFSHCSFSQPVFPYLNPRKCGVPMTLCSPSS [human TRIM5α, 6-codon duplication at 329]”, 0.467 ± 0.084.
In turn, “MASGILVNVKEEVTCPICLELLTQPLSLDCGHSFCQACLTANHKKSMLDKGESSCPVCRISYQPENIRPNRHVANIVEKLREVKLSPEGQKVDHCARHGEKLLLFCQEDGKVICWLCERSQEHRGHHTFLTEEVAREYQVKLQAALEMLRQKQQEAEELEADIREEKASWKTQIQYDKTNVLADFEQLRDILDWEESNELQNLEKEEEDILKSLTNSETEMVQQTQSLRELISDLEHRLQGSVMELLQGVDGVIKRTENVTLKKPETFPKNQRRVFRAPDLKGMLEVFRELTDVRRYWVDVTVAPNNISCAVISEDKRQVSSPKPQIIYGARGTYQTFVNFNYCTGILGSQSITSGKHYWEVDVSKKTAWILGVCAGFQPDAMCNIEKNENYQPKYGYWVIGLEEGVKCSAFQDSSFHTPSVPFIVPLSVIICPDRVGVFLDYEACTVSFFNITNHGFLIYKFSHCSFSQPVFPYLNPRKCGVPMTLCSPSS [human TRIM5α, 1-codon deletion at 335]” registered an enrichment of 0.718 ± 0.14.
As for “MASGILVNVKEEVTCPICLELLTQPLSLDCGHSFCQACLTANHKKSMLDKGESSCPVCRISYQPENIRPNRHVANIVEKLREVKLSPEGQKVDHCARHGEKLLLFCQEDGKVICWLCERSQEHRGHHTFLTEEVAREYQVKLQAALEMLRQKQQEAEELEADIREEKASWKTQIQYDKTNVLADFEQLRDILDWEESNELQNLEKEEEDILKSLTNSETEMVQQTQSLRELISDLEHRLQGSVMELLQGVDGVIKRTENVTLKKPETFPKNQRRVFRAPDLKGMLEVFRELTDVRRYWVDVTVAPNNISCAVISEDKRQVSSPKPQIIYGARGVNFNYCTGILGSQSITSGKHYWEVDVSKKTAWILGVCAGFQPDAMCNIEKNENYQPKYGYWVIGLEEGVKCSAFQDSSFHTPSVPFIVPLSVIICPDRVGVFLDYEACTVSFFNITNHGFLIYKFSHCSFSQPVFPYLNPRKCGVPMTLCSPSS [human TRIM5α, 6-codon deletion at 334]”, the figure is 0.938 ± 0.38.

Source of the values: the supplement of paper PMC12230231.
